About 14,000 (4.5%) of roughly 310,000 compounds showed an effect of 50% or more. Effects have a minus sign here. This is one part of the list. Where a SMILES comes first, the peptide text is derived from it. The star is where a group is joined. OBn = c1ccc(CO*)cc1
Target: human ether-à-go-go-related gene (hERG) potassium channel (human, UniProt Q12809)
Test: primary screen, population patch clamp on CHO cells stably expressing hERG
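Note: peak tail current of the secondary pulse compared with the same well before compound.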

human ether-à-go-go-related gene (hERG) potassium channel, sequence (Q12809 whole entry, looked up): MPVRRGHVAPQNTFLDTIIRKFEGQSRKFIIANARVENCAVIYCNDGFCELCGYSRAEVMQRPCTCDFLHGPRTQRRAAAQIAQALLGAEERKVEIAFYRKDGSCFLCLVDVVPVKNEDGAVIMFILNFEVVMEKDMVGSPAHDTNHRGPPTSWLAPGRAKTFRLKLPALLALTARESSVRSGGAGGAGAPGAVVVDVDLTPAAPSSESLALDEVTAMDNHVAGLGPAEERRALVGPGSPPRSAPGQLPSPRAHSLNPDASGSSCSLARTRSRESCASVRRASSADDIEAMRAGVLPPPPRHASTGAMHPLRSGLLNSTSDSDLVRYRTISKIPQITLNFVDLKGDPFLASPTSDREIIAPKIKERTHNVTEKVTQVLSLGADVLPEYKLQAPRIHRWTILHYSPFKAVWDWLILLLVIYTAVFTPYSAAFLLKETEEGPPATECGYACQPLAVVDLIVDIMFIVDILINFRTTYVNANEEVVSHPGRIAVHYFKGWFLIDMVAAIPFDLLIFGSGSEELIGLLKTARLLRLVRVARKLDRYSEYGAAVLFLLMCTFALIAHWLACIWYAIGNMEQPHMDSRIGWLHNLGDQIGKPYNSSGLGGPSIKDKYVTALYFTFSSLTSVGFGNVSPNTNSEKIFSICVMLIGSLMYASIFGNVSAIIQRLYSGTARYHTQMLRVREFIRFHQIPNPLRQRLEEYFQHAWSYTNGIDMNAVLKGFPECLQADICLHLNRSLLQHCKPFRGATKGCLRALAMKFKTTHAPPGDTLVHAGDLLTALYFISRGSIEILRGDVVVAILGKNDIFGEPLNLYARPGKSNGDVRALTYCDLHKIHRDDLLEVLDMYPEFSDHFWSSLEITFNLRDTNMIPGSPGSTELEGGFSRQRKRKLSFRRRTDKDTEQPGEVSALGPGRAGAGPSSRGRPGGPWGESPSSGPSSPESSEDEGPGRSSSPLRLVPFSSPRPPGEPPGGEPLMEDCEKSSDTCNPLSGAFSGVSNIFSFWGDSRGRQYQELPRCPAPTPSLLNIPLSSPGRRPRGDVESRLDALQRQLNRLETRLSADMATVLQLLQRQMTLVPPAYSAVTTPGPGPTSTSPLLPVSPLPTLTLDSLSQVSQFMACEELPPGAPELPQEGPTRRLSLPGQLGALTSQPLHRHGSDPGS

In order of rising “hERG current change (%, negative = inhibition) at 10uM” value:
1. COc1ccc(C2C(C(=O)N3CCN(c4ccccn4)CC3)CC(=O)N2c2ccc(OC)cc2)cc1 (centres unmarked)  -78.7%
2. CCc1c(C)nc2ncnn2c1N1CCC(C(=O)N2CCN(c3ccc(F)cc3)CC2)CC1  -67.9%
3. CC(C)C[C@H]1CN=C(Nc2ccccc2)N1CCC1CCCC1  -51.5%
4. COc1ccc(/C=N\NC(=O)c2ccc(F)cc2)cc1COc1ccccc1C(N)=O  -44.3%
5. COc1ccc(CNC(=O)CSCc2cnn(-c3ccccc3)c2-n2cccc2)cc1  -39.6%
6. CC(=NCCN1CCCCC1)c1c(O)n(Cc2ccccc2)c(=O)[nH]c1=O  -35.1%
7. CCCCN(C1CCS(=O)(=O)C1)S(=O)(=O)c1ccc(OC)cc1 (centres unmarked)  -24.5%
8. CCN(CC)S(=O)(=O)c1ccc(N2CCOCC2)c(NC(=O)CN2C(=O)NC(C)(c3ccccc3)C2=O)c1 (centres unmarked)  -24.1%
9. COc1ccc(NC(=O)/C(=C\c2ccc(OC)c(OC)c2)NC(=O)c2ccco2)cc1  -22%
10. COc1ccc([C@@H]2[C@@H]3C(=O)N(C(C)(C)C)C(=O)[C@@H]3[C@]3(C)C(=O)N(c4cccc(C)c4)C(=O)N23)cc1  -20.4%
11. CC(=O)c1cccc(CN2CCCC(CCC(=O)NCc3ccc(C)o3)C2)c1 (centres unmarked)  -16.2%
12. Cc1ccc(S(=O)(=O)c2n[nH]n3c2nc(=O)c2ccccc23)cc1  -9.72%
13. Cc1cc(C(=O)CSc2nnc(-c3ccccc3F)o2)c(C)n1Cc1cccs1  -9.29%
14. CC1=C(C(=O)N2CCOCC2)C(c2ccc(C)cc2)NC(=S)N1 (centres unmarked)  -8.86%
15. Cc1ccc(CNC(=O)C2c3ccccc3C(=O)N(C)C2c2c[nH]c3ccccc23)o1 (centres unmarked)  -7.83%
16. O=C(COc1ccc2c3c(c(=O)oc2c1)CCC3)NCCN1CCOCC1  -5.25%
17. CC(=O)Nc1ccc(C(=O)n2cnc3cc(C)c(C)cc32)cc1  -3.23%
18. Cc1cnc(C(=O)OCC(=O)N(C)CC(=O)Nc2ccccc2Cl)cn1  -2.14%
19. Cc1cc(C(=O)N/N=C/c2ccc([N+](=O)[O-])cc2)c(C)o1  -1.99%
20. CC(=O)c1ccccc1NC(=O)COC(=O)C1CCCN1S(=O)(=O)c1ccccc1F (centres unmarked)  -0.476%
21. COc1ccc(S(=O)(=O)N2CCOCC2)cc1N=Nc1sc(N)nc1-c1ccccc1  0.0587%
22. CCN(CC)S(=O)(=O)c1ccc(N2CCOCC2)c(NC(=O)CC(C)(C)C)c1  0.733%
23. CC1(C)Cc2c(c(-c3ccccc3)nc3[nH][nH]c(=O)c23)CO1  0.812%
24. COc1ccccc1OC(C)c1nnc(SCC(=O)Nc2c(C)n(C)n(-c3ccccc3)c2=O)n1-c1ccccc1 (centres unmarked)  1.06%
25. O=C(COC(=O)C1CC(=O)N(c2ccc3c(c2)OCCO3)C1)Nc1ccc2c(c1)CCC2 (centres unmarked)  1.34%
26. CC(=O)NS(=O)(=O)c1ccc(NC(=O)COc2cccc3c2OC(C)(C)C3)cc1  2.03%
27. COc1c(C(C)C)cc(NC(C)=O)cc1C(C)C  5.78%
28. CCOc1ccc(-c2onc(C(F)(F)F)c2-c2cscn2)c(O)c1  6.55%
29. CCOC(=O)CCc1n[nH]c(=O)[nH]c1=O  7.83%
30. O=C(Cn1c(=O)c2cccn2c2ccccc21)NCc1cccc(F)c1  7.88%
31. CSc1ccc(S(=O)(=O)N(C)Cc2ccccc2)cc1  7.97%
32. CC(C)CCNC(=O)NC(=O)COC(=O)C1=COCCO1  9.33%
33. O=C(Nc1ccccc1F)N1CCC(NC(=O)C23CC4CC(CC(C4)C2)C3)CC1  9.42%
34. CCCCC(=O)Nc1nnn(CCC)n1  9.55%
35. CCc1nc(-n2[nH]c(=O)c3ccccc3c2=O)c2c3c(sc2n1)CCCC3  11.5%
36. COc1ccc(N2CCCC2)c(NC(=O)COc2ccccc2)c1  11.5%
37. O=C1C(C2=NC(c3ccccn3)C3C(=O)N(c4ccc(OC(F)(F)F)cc4)C(=O)C23)=C(O)c2ccccc21 (centres unmarked)  12.2%
38. COC(=O)c1ccc(CNC(=O)c2cc(COc3cncc(Cl)c3)on2)cc1  12.4%
39. CCC1CCCCN1C(=O)CN1C(=O)CSC1=O (centres unmarked)  16.4%
40. Cc1ccccc1COc1ccc(/C(O)=C2/C(=O)C(=O)N(CCCn3ccnc3)C2c2ccco2)cc1 (centres unmarked)  17.2%
41. O=C(Nc1cc2c(cc1Cl)OCCO2)c1ccco1  17.6%
42. Cl.NCC(=O)NCC(=O)OCc1ccccc1 (H-Gly-Gly-OBn)  19.6%
43. CCc1cc2c(C)ccc(C)c2nc1SCC(=O)Nc1c[nH]c(=O)[nH]c1=O  21.3%
44. CC(=O)N1CC(C)Oc2ccc(S(=O)(=O)NC(CC(=O)O)c3ccccc3)cc21 (centres unmarked)  21.8%
